Reference: the supplement of paper PMC12423691
The list shows a part of the results. Binding of human transcription factors and regulators to the viral nucleoprotein by AlphaScreen, crude cell-free proteins, amounts not normalised, one pass. Fold of the Venus control; higher = more signal. No active / inactive call. Single-pass screen; sequences are the whole Swiss-Prot entries looked up by name.

B1: NDP, Q00604 (protein)
chain: MRKHVLAASFSMLSLLVIMGDTDSKTDSSFIMDSDPRRCMRHHYVDSISHPLYKCSSKMVLLARCEGHCSQASRSEPLVSFSTVLKQPFRSSCHCCRPQTSKLKALRLRCSGGMRLTATYRYILSCHCEECNS
B2: ZKSCAN3, Q9BRR0 (protein)
chain: MARELSESTALDAQSTEDQMELLVIKVEEEEAGFPSSPDLGSEGSRERFRGFRYPEAAGPREALSRLRELCRQWLQPEMHSKEQILELLVLEQFLTILPGNLQSWVREQHPESGEEVVVLLEYLERQLDEPAPQVSGVDQGQELLCCKMALLTPAPGSQSSQFQLMKALLKHESVGSQPLQDRVLQVPVLAHGGCCREDKVVASRLTPESQGLLKVEDVALTLTPEWTQQDSSQGNLCRDEKQENHGSLVSLGDEKQTKSRDLPPAEELPEKEHGKISCHLREDIAQIPTCAEAGEQEGRLQRKQKNATGGRRHICHECGKSFAQSSGLSKHRRIHTGEKPYECEECGKAFIGSSALVIHQRVHTGEKPYECEECGKAFSHSSDLIKHQRTHTGEKPYECDDCGKTFSQSCSLLEHHRIHTGEKPYQCSMCGKAFRRSSHLLRHQRIHTGDKNVQEPEQGEAWKSRMESQLENVETPMSYKCNECERSFTQNTGLIEHQKIHTGEKPYQCNACGKGFTRISYLVQHQRSHVGKNILSQ
B3: KCNIP3, Q9Y2W7 (protein)
chain: MQPAKEVTKASDGSLLGDLGHTPLSKKEGIKWQRPRLSRQALMRCCLVKWILSSTAPQGSDSSDSELELSTVRHQPEGLDQLQAQTKFTKKELQSLYRGFKNECPTGLVDEDTFKLIYAQFFPQGDATTYAHFLFNAFDADGNGAIHFEDFVVGLSILLRGTVHEKLKWAFNLYDINKDGYITKEEMLAIMKSIYDMMGRHTYPILREDAPAEHVERFFEKMDRNQDGVVTIEEFLEACQKDENIMSSMQLFENVI
B4: SMAD6, O43541 (protein)
chain: MFRSKRSGLVRRLWRSRVVPDREEGGSGGGGGGDEDGSLGSRAEPAPRAREGGGCGRSEVRPVAPRRPRDAVGQRGAQGAGRRRRAGGPPRPMSEPGAGAGSSLLDVAEPGGPGWLPESDCETVTCCLFSERDAAGAPRDASDPLAGAALEPAGGGRSREARSRLLLLEQELKTVTYSLLKRLKERSLDTLLEAVESRGGVPGGCVLVPRADLRLGGQPAPPQLLLGRLFRWPDLQHAVELKPLCGCHSFAAAADGPTVCCNPYHFSRLCGPESPPPPYSRLSPRDEYKPLDLSDSTLSYTETEATNSLITAPGEFSDASMSPDATKPSHWCSVAYWEHRTRVGRLYAVYDQAVSIFYDLPQGSGFCLGQLNLEQRSESVRRTRSKIGFGILLSKEPDGVWAYNRGEHPIFVNSPTLDAPGGRALVVRKVPPGYSIKVFDFERSGLQHAPEPDAADGPYDPNSVRISFAKGWGPCYSRQFITSCPCWLEILLNNPR
B5: REXO4, Q9GZR2 (protein)
chain: MGKAKVPASKRAPSSPVAKPGPVKTLTRKKNKKKKRFWKSKAREVSKKPASGPGAVVRPPKAPEDFSQNWKALQEWLLKQKSQAPEKPLVISQMGSKKKPKIIQQNKKETSPQVKGEEMPAGKDQEASRGSVPSGSKMDRRAPVPRTKASGTEHNKKGTKERTNGDIVPERGDIEHKKRKAKEAAPAPPTEEDIWFDDVDPADIEAAIGPEAAKIARKQLGQSEGSVSLSLVKEQAFGGLTRALALDCEMVGVGPKGEESMAARVSIVNQYGKCVYDKYVKPTEPVTDYRTAVSGIRPENLKQGEELEVVQKEVAEMLKGRILVGHALHNDLKVLFLDHPKKKIRDTQKYKPFKSQVKSGRPSLRLLSEKILGLQVQQAEHCSIQDAQAAMRLYVMVKKEWESMARDRRPLLTAPDHCSDDA
B6: PTH, P01270 (protein)
chain: MIPAKDMAKVMIVMLAICFLTKSDGKSVKKRSVSEIQLMHNLGKHLNSMERVEWLRKKLQDVHNFVALGAPLAPRDAGSQRPRKKEDNVLVESHEKSLGEADKADVNVLTKAKSQ
B7: NR0B1, P51843 (protein)
chain: MAGENHQWQGSILYNMLMSAKQTRAAPEAPETRLVDQCWGCSCGDEPGVGREGLLGGRNVALLYRCCFCGKDHPRQGSILYSMLTSAKQTYAAPKAPEATLGPCWGCSCGSDPGVGRAGLPGGRPVALLYRCCFCGEDHPRQGSILYSLLTSSKQTHVAPAAPEARPGGAWWDRSYFAQRPGGKEALPGGRATALLYRCCFCGEDHPQQGSTLYCVPTSTNQAQAAPEERPRAPWWDTSSGALRPVALKSPQVVCEAASAGLLKTLRFVKYLPCFQVLPLDQQLVLVRNCWASLLMLELAQDRLQFETVEVSEPSMLQKILTTRRRETGGNEPLPVPTLQHHLAPPAEARKVPSASQVQAIKCFLSKCWSLNISTKEYAYLKGTVLFNPDVPGLQCVKYIQGLQWGTQQILSEHTRMTHQGPHDRFIELNSTLFLLRFINANVIAELFFRPIIGTVSMDDMMLEMLCTKI
B8: CAMTA1, Q9Y6Y1 (protein)
chain: MWRAEGKWLPKTSRKSVSQSVFCGTSTYCVLNTVPPIEDDHGNSNSSHVKIFLPKKLLECLPKCSSLPKERHRWNTNEEIAAYLITFEKHEEWLTTSPKTRPQNGSMILYNRKKVKYRKDGYCWKKRKDGKTTREDHMKLKVQGVECLYGCYVHSSIIPTFHRRCYWLLQNPDIVLVHYLNVPAIEDCGKPCGPILCSINTDKKEWAKWTKEELIGQLKPMFHGIKWTCSNGNSSSGFSVEQLVQQILDSHQTKPQPRTHNCLCTGSLGAGGSVHHKCNSAKHRIISPKVEPRTGGYGSHSEVQHNDVSEGKHEHSHSKGSSREKRNGKVAKPVLLHQSSTEVSSTNQVEVPDTTQSSPVSISSGLNSDPDMVDSPVVTGVSGMAVASVMGSLSQSATVFMSEVTNEAVYTMSPTAGPNHHLLSPDASQGLVLAVSSDGHKFAFPTTGSSESLSMLPTNVSEELVLSTTLDGGRKIPETTMNFDPDCFLNNPKQGQTYGGGGLKAEMVSSNIRHSPPGERSFSFTTVLTKEIKTEDTSFEQQMAKEAYSSSAAAVAASSLTLTAGSSLLPSGGGLSPSTTLEQMDFSAIDSNKDYTSSFSQTGHSPHIHQTPSPSFFLQDASKPLPVEQNTHSSLSDSGGTFVMPTVKTEASSQTSSCSGHVETRIESTSSLHLMQFQANFQAMTAEGEVTMETSQAAEGSEVLLKSGELQACSSEHYLQPETNGVIRSAGGVPILPGNVVQGLYPVAQPSLGNASNMELSLDHFDISFSNQFSDLINDFISVEGGSSTIYGHQLVSGDSTALSQSEDGARAPFTQAEMCLPCCSPQQGSLQLSSSEGGASTMAYMHVAEVVSAASAQGTLGMLQQSGRVFMVTDYSPEWSYPEGGVKVLITGPWQEASNNYSCLFDQISVPASLIQPGVLRCYCPAHDTGLVTLQVAFNNQIISNSVVFEYKARALPTLPSSQHDWLSLDDNQFRMSILERLEQMERRMAEMTGSQQHKQASGGGSSGGGSGSGNGGSQAQCASGTGALGSCFESRVVVVCEKMMSRACWAKSKHLIHSKTFRGMTLLHLAAAQGYATLIQTLIKWRTKHADSIDLELEVDPLNVDHFSCTPLMWACALGHLEAAVVLYKWDRRAISIPDSLGRLPLGIARSRGHVKLAECLEHLQRDEQAQLGQNPRIHCPASEEPSTESWMAQWHSEAISSPEIPKGVTVIASTNPELRRPRSEPSNYYSSESHKDYPAPKKHKLNPEYFQTRQEKLLPTALSLEEPNIRKQSPSSKQSVPETLSPSEGVRDFSRELSPPTPETAAFQASGSQPVGKWNSKDLYIGVSTVQVTGNPKGTSVGKEAAPSQVRPREPMSVLMMANREVVNTELGSYRDSAENEECGQPMDDIQVNMMTLAEHIIEATPDRIKQENFVPMESSGLERTDPATISSTMSWLASYLADADCLPSAAQIRSAYNEPLTPSSNTSLSPVGSPVSEIAFEKPNLPSAADWSEFLSASTSEKVENEFAQLTLSDHEQRELYEAARLVQTAFRKYKGRPLREQQEVAAAVIQRCYRKYKQYALYKKMTQAAILIQSKFRSYYEQKKFQQSRRAAVLIQKYYRSYKKCGKRRQARRTAVIVQQKLRSSLLTKKQDQAARKIMRFLRRCRHSPLVDHRLYKRSERIEKGQGT

Each binder was assayed against nucleoprotein N of Crimean-Congo hemorrhagic fever virus (assay: AlphaScreen luminescence signal relative to Venus negative control (fold); higher = stronger binding to CCHFV N).
Method: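 AlphaScreen binding of cell-free made, FLAG-GST-tagged human transcription factors and regulators (crude translation products) to biotinylated N protein; signal as fold of the FLAG-GST-Venus control. One pass.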

| Binder | AlphaScreen luminescence signal |
| --- | --- |
| B1 | 2.42 |
| B2 | 1.63 |
| B3 | 1.53 |
| B4 | 3.21 |
| B5 | 4.47 |
| B6 | 2.42 |
| B7 | 2.23 |
| B8 | 1.67 |
